Data: the supplement of paper PMC11417369
This is one part of the list.

test system: PfHDP1 homeodomain (GST-tagged); test: gcPBM binding intensity (ln(normalized median fluorescence intensity)); higher = stronger DNA binding
Outline: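 Plasmodium falciparum DNA-binding domains carrying a GST tag were expressed in E. coli and applied for 1 h, at about 25 μg on average, to an Agilent 4 × 180k array. The array held primer-extended double-stranded 36-bp intergenic genomic probes together with negative controls, and binding took place in 1× PBS with 1% milk, 0.2 mg/ml BSA, 0.5% salmon testes DNA and 0.03% Triton X-100. An Alexa488 anti-GST antibody detected bound protein, and the array was scanned at 488 nm. Binding intensity is taken as the highest Masliner-normalised natural-log median intensity across replicate spots of either probe orientation.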

Sequence | gcPBM binding intensity (ln)
CATATACATTGTATATGTACATATATATATATATAT [XGTACX_site3772] | 9.33
AGTATATTAAAAAATACACACGTATTATATCTACAT [CACACA_site8844] | 6.37
GTTCATAAATTAAACACACACACACCGCTGGATACC [CACACA_site5779] | 6.82
TAATATACTTAATACACACACGAATATTTATAAATA [CACACA_site6675] | 6.97
GATTCATCTAAACACCGTACATATTATATATATATA [XGTACX_site6030] | 8.65
AAACTCAACTTATATACACACAATCTTTTTTTTTTA [CACACA_site29] | 6.54
CCCCTCGAAATAATTTGTACGAATATATTGTCTGTA [XGTACX_site8308] | 7.59
TATTGTATATAATAAACACACAATATTAAAAATATA [CACACA_site1057] | 6.11
TATTTAAAAAACACATGTACGAGTATTATATATAAA [XGTACX_site6654] | 6.82
GGTTATAACGCACATGCACACGTAAATAAATATTAT [CACACA_site9277] | 9.92
TAAATTTTAATAAATACACACAAATTTTAATTCTAT [CACACA_site6039] | 6.27
ACATGCAACCATTCGGGTACAGAAATAAATATATAC [XGTACX_site4174] | 6.48
CTTTTTCGCATGAAAAGTACATGAAATATATTACAT [XGTACX_site8971] | 6.17
AATAACTTTTTAAACACACACACATATAAATAAATA [CACACA_site6196] | 6.97
ATTGGAAAATATGTTATATATATATATATATATATG [CACACA_negctrl_site116] | 7.46
TTAATTCGTACATACACACGCACATATATATATATA [CACACA_site1469] | 9.4
ATATTTTTTTTCTACACACATACAAATATATATTAT [CACACA_site2359] | 7.34
AATAATAATAGAAACACACACACATCTTTAATAATA [CACACA_site4805] | 6.76
ATATTAAAATACAGTGCATGTTAAAAATATATTATA [TGCATGCA_site977] | 7.4
TTATAACATCTTAAATGTACAAATATGTGCTTATTT [XGTACX_site7285] | 6.26
AATAAAAGTTCACCTGTACACACATATATATATGTA [CACACA_site8500] | 6.7
TAAAAAAAAAACATCTGTACCAATTTTTATGTATAA [XGTACX_site5196] | 6.2
ATGTATTTATATACTTGTACGTAAGATGTATTATAT [XGTACX_site908] | 6.52

Sequence | gcPBM binding intensity (ln)
TTAAGATCCTAAAAAACACACAATTGCGAATAATAA [CACACA_site6005] | 6.8
ATATCATAAAAAATGTGTACATATATGAACATATAA [XGTACX_site2239] | 6.6
GATATATATGTTCACACACACATGGAAATATATATA [CACACA_site4371] | 6.62
GGAAATTAACAGAACACAATGTAACAATTTCTAACA [CACACA_negctrl_site1250] | 6.29
TATTTTCATTATACTACTTCGAAGATACCCTTTTTT [CACACA_negctrl_site256] | 6.53
AGATAAATATATTGTAGTACAGGAGCATAAATATAT [XGTACX_site8267] | 8.68
GTTCTTCCTTGTAAATGTACAAATACAAAATGTTCC [XGTACX_site6738] | 6.88
TATAAACATTAAAGGTGTACAATTTAATTTCAATTT [XGTACX_site2944] | 6.28
GTTCATAAAAATTTTTGTACCCATAAAATATTCCTC [XGTACX_site8611] | 6.55
TTTTTTTTTTTTAATTGTACTTATTAAAAAAAGCAA [XGTACX_site8713] | 6.2
GTAGGTGTTTTTGGTTGTACATATAAATATATATAC [XGTACX_site3380] | 7.05
TTTCTTCTTCAATGTTGTACTTTTCTCTTTTCTTAA [XGTACX_site1017] | 6.91
TTTTTTTTTTTTCAATCACACATGTTTTAATTATTT [CACACA_site5532] | 6.21
TCATTTCACAGACACACACACACAAGATATTTCCTT [CACACA_site7774] | 7.06
TGTACGTTTTATAACACACACACAAAAAAAAAAAAA [CACACA_site3875] | 6.61
GAAGTTTTCTTAAAGATGCACTTTTTAAAAATAAAA [GTGCAC_site9941] | 6.81
TCTTCTTTTTTTTTTTTGTATTATTATAAATATTAT [CACACA_negctrl_site1668] | 6.53
AAGATAAAATGATGCACACAAAAGGGTGTAATATAT [CACACA_site1706] | 8.59
TTTTTTTTTTTTAATGCACACAATATATAATATGTA [CACACA_site3694] | 10.2
ATATTATTATATATAGTGCATATTATTATTTTTATT | 8.22
CATTATTCTTTTAATATACACACTTTGTCTTTTCGC [CACACA_site2762] | 6.62
TCTCATAGTAAACACACACACACACCCACATATATA [CACACA_site5034] | 7.01
TATGCACTTTAGGGCAGTACGTCAACATTATCTTTA [XGTACX_site3382] | 7.86

Sequence | gcPBM binding intensity (ln)
CCTCATACGAAATATAAACACACATACAATAAATAA [CACACA_site8620] | 6.82
TATATTTATTATAACACACACATATAAATATTATAG [CACACA_site6726] | 6.74
TGTTAAAATTATTTGGTGCACTTGTTTTACCTTATT | 9.92
ATAAATTTTTTTTTTTTTTTTTTTTTTTTTTTTTTT [CACACA_negctrl_site508] | 7.38
ATTTTTTTCATAGACACACACAATATATCTGTTTCC [CACACA_site3023] | 6.83
TATTAATTTCGGGAAGTGCATTATGTTTATAGAATA | 8.75
TGTTTTAAACTAATTTGTACATAGTTATTTATATTT [XGTACX_site7196] | 6.36
ATTATATAAGTACACAAACAAGTATGAGATTCAAAA [GTGCAC_negctrl_site119] | 6.12
CCATATATTTGGTATAGTACTTTTTATTTTATTTCA [XGTACX_site8933] | 6.53
ATATATTTTTCTTTACGTACGAAGCAAAATAACATT [XGTACX_site8145] | 6.18
AAATGAACATATATGTGTACTTATATTTTTCTAAAT [XGTACX_site3388] | 6.38
AATTGTTTTTTTTTCTTATTTTATGTTATACACACA [TGCATGCA_negctrl_site380] | 6.83
AAAAAAAAAAAAAACACATGCAGAAGAAAAAAAATA [TGCATGCA_site545] | 6.45
TCATTAAATGTTTAGGTGCATACTTTAATTTTTAAT [GTGCAC_site9906] | 9.31
AAAAAAAAAAAAAAAGTGCATATATAAATATTGTAT [GTGCAC_site9459] | 7.19
AAATATTATAATAATTGTACTATATATACAGTTATT [XGTACX_site1963] | 6.39
AAAAAAAAAAAATTATGTACATATTATATATAATGG [XGTACX_site2885] | 6.71
TAAAATATGTCATGGGTGCTTCTTTTTATACCTATG [GTGCAC_site9888] | 6.29
ATATATATATATTTATGTACGCATTTATAGACGTAG [XGTACX_site6031] | 8.7
TGTTTTTAAAAATATACACACACAGATATTATATAT [CACACA_site8162] | 6.73
TTTTATATTTATTTTTGTACATAAATGATCTCAAAT [XGTACX_site7768] | 6.46
AGAAAAAAAAAAAAAAATAAAAAAATAAATAAATAA [GTGCAC_negctrl_site161] | 6.13
ACTTAAATAATACATACACACATGTACTTACAGAAA [CACACA_site8458] | 6.71

Sequence | gcPBM binding intensity (ln)
TATGATAACCATAATTGTACAGAATGAAACGTAAAT [XGTACX_site1653] | 7.03
CACAAATATATACATACACACATATATACACATATA [CACACA_site8024] | 6.84
AAAACGCAGTTTAATATACACACCAAAAAAAAAAAA [CACACA_site3036] | 6.31
TTTGAGATGTGGTGTACACAAAATTAGGTACACATC [CACACA_site5773] | 6.81
ATAAATATAAAACACACACACATATTATATATATAT [CACACA_site3064] | 8.71
AAAAAAAAAAAAAAGTGTACCTTCAAAATAATATTG [XGTACX_site2844] | 6.27
CCTTTTTCTACTTTCTCACACATATTAAGAATTATA [CACACA_site5621] | 7.06
TCTTTCCTTATTAAAACACACAAATACATTATTTAA [CACACA_site2147] | 6.7
AAGTTTTTTTTTATCACACACAAAAAAAAAAATATA [CACACA_site1362] | 6.15
AAAAAATGAAAAAACTGTACGCAATTTTGTTTTTAT [XGTACX_site2299] | 6.18
ATGTGAAAATAAGACACACTCAAAAGGTTTATATTA [CACACA_site4595] | 6.24
TTTTTATATAATTTAACACACATTTCATATAAAAAA [CACACA_site3103] | 6.55
ATATACTGTATGAAAGCACACATACTTATTACTAAC [CACACA_site9384] | 6.55
AAAAAATTTCAAATAACACACACTAATATAAATATG [CACACA_site6783] | 6.63
TAACTTTGGAGGAGCTGTACGATTATTTTGATCCTT [XGTACX_site2514] | 6.27
TTTAAAAAATAATATTGTACTATTCTCCCAATTTCT [XGTACX_site7079] | 6.03
TGGGAAAAAATATATGCACACCCCCCAAAAAAAAAA [CACACA_site8696] | 10.6
AAAAAATGTTATAAAAGTACATAATTTATCTACCAT [XGTACX_site3035] | 6.02
AATTCTTTATTATATGCACACGTACATATAATATAT [CACACA_site8621] | 9.66
AGTCTATAGTAATTTACACACAAAAAAATATCAGGA [CACACA_site7620] | 6.72
